# Test results reported in the supplement of paper PMC8728848.
# Some of the results follow.
# B1: SGC, Q9M345 (protein)
# chain: QNLNFTYNGFHPPLTDISLQGLATVTPNGLLKLTNTSVQKTGHAFCTERIRFKDSQNGNVSSFSTTFVFAIHSQIPTLSGHGIAFVVAPTLGLPFALPSQYIGLFNISNNGNDTNHIFAVEFDTIQSSEFGDPNDNHVGIDLNGLRSANYSTAGYRDDHDKFQNLSLISRKRIQVWIDYDNRSHRIDVTVAPFDSDKPRKPLVSYVRDLSSILLEDMYVGFSSATGSVLSEHFLVGWSFRLNGEAPMLSLSKLPKLPRFEPRRIS
# Legend:
# Experiment in all cases: glycan array binding signal (z-score within array); higher = stronger binding
# Details in all cases: glycan notation: IUPAC condensed, linker removed
# [1] = target: Gal(b1-4)GlcNAc(b1-6)Gal(b1-4)GlcNAc
# Summary of the method: (§1)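 The binding signal is a Z-score computed within each array and averaged over linkers. Arrays of the same protein sequence at different concentrations or buffers were also averaged together. Data originate from 3228 arrays in the Consortium for Functional Glycomics database, kept only where the protein sequence was available.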
# [2] = target: Gal(b1-4)GlcNAc(b1-6)GalNAc
# Summary of the method: as §1
# [3] = target: Gal(b1-4)GlcNAc(b1-6)[Gal(b1-3)]GalNAc
# Summary of the method: as §1
# [4] = target: Gal(b1-4)GlcNAc(b1-6)[Gal(b1-4)GlcNAc(b1-3)]GalNAc
# Summary of the method: as §1
# Gal(b1-4)GlcNAc6P = target: Gal(b1-4)GlcNAc6P
# Summary of the method: as §1
# Gal(b1-6)Gal = target: Gal(b1-6)Gal
# Summary of the method: as §1
# Gal3S(b1-3)GalNAc = target: Gal3S(b1-3)GalNAc
# Summary of the method: as §1
# Gal3S(b1-3)GlcNAc = target: Gal3S(b1-3)GlcNAc
# Summary of the method: as §1
# [5] = target: Gal3S(b1-3)[Fuc(a1-4)]GlcNAc
# Summary of the method: as §1
# Gal3S(b1-4)Glc = target: Gal3S(b1-4)Glc
# Summary of the method: as §1
# Gal3S(b1-4)Glc6S = target: Gal3S(b1-4)Glc6S
# Summary of the method: as §1
# Gal3S(b1-4)GlcNAc = target: Gal3S(b1-4)GlcNAc
# Summary of the method: as §1
# [6] = target: Gal3S(b1-4)[Fuc(a1-3)]Glc6S
# Summary of the method: as §1
# [7] = target: Gal3S(b1-4)[Fuc(a1-3)]GlcNAc
# Summary of the method: as §1
# [8] = target: Gal3S(b1-4)[Fuc(a1-3)]GlcNAc6S
# Summary of the method: as §1
# Gal3S4S(b1-4)GlcNAc = target: Gal3S4S(b1-4)GlcNAc
# Summary of the method: as §1
# Gal3S6S(b1-4)GlcNAc = target: Gal3S6S(b1-4)GlcNAc
# Summary of the method: as §1
# Gal3S6S(b1-4)GlcNAc6S = target: Gal3S6S(b1-4)GlcNAc6S
# Summary of the method: as §1
# Gal4S(b1-4)GlcNAc = target: Gal4S(b1-4)GlcNAc
# Summary of the method: as §1
# Gal4S6S(b1-4)GlcNAc = target: Gal4S6S(b1-4)GlcNAc
# Summary of the method: as §1
# Gal6P(b1-4)GlcNAc = target: Gal6P(b1-4)GlcNAc
# Summary of the method: as §1
# Gal6S(b1-3)GlcNAc = target: Gal6S(b1-3)GlcNAc
# Summary of the method: as §1
# Gal6S(b1-3)GlcNAc6S = target: Gal6S(b1-3)GlcNAc6S
# Summary of the method: as §1
# Gal6S(b1-4)Glc = target: Gal6S(b1-4)Glc
# Summary of the method: as §1
# Gal6S(b1-4)Glc6S = target: Gal6S(b1-4)Glc6S
# Summary of the method: as §1
# Gal6S(b1-4)GlcNAc = target: Gal6S(b1-4)GlcNAc
# Summary of the method: as §1
# Gal6S(b1-4)GlcNAc6S = target: Gal6S(b1-4)GlcNAc6S
# Summary of the method: as §1
# GalNAc(a1-3)Gal = target: GalNAc(a1-3)Gal
# Summary of the method: as §1
# GalNAc(a1-3)GalNAc = target: GalNAc(a1-3)GalNAc
# Summary of the method: as §1
# [9] = target: GalNAc(a1-3)GalNAc(b1-3)Gal(a1-4)Gal(b1-4)Glc
# Summary of the method: as §1
# [10] = target: GalNAc(a1-3)GalNAc(b1-3)Gal(a1-4)Gal(b1-4)GlcNAc
# Summary of the method: as §1
# GalNAc(b1-3)Gal = target: GalNAc(b1-3)Gal
# Summary of the method: as §1
# [11] = target: GalNAc(b1-3)Gal(a1-4)Gal(b1-4)GlcNAc
# Summary of the method: as §1
# [12] = target: GalNAc(b1-3)Gal(a1-4)Gal(b1-4)GlcNAc(b1-3)Gal(b1-4)Glc
# Summary of the method: as §1
# [13] = target: GalNAc(b1-3)Gal(a1-6)Gal(b1-4)Glc
# Summary of the method: as §1
# GalNAc(b1-3)GalNAc = target: GalNAc(b1-3)GalNAc
# Summary of the method: as §1
# GalNAc(b1-3)GlcNAc = target: GalNAc(b1-3)GlcNAc
# Summary of the method: as §1
# GalNAc(b1-4)Gal(b1-4)Glc = target: GalNAc(b1-4)Gal(b1-4)Glc
# Summary of the method: as §1
binder,measurement,setting,value
B1,glycan array binding signal (z-score),[1],-0.298
same,glycan array binding signal (z-score),[2],1.76
same,glycan array binding signal (z-score),[3],0.322
same,glycan array binding signal (z-score),[4],0.103
same,glycan array binding signal (z-score),Gal(b1-4)GlcNAc6P,-0.448
same,glycan array binding signal (z-score),Gal(b1-6)Gal,-0.329
same,glycan array binding signal (z-score),Gal3S(b1-3)GalNAc,-0.382
same,glycan array binding signal (z-score),Gal3S(b1-3)GlcNAc,-0.366
same,glycan array binding signal (z-score),[5],-0.292
same,glycan array binding signal (z-score),Gal3S(b1-4)Glc,-0.369
same,glycan array binding signal (z-score),Gal3S(b1-4)Glc6S,-0.344
same,glycan array binding signal (z-score),Gal3S(b1-4)GlcNAc,-0.371
same,glycan array binding signal (z-score),[6],0.718
same,glycan array binding signal (z-score),[7],-0.341
same,glycan array binding signal (z-score),[8],-0.354
same,glycan array binding signal (z-score),Gal3S4S(b1-4)GlcNAc,-0.652
same,glycan array binding signal (z-score),Gal3S6S(b1-4)GlcNAc,-0.217
same,glycan array binding signal (z-score),Gal3S6S(b1-4)GlcNAc6S,-0.304
same,glycan array binding signal (z-score),Gal4S(b1-4)GlcNAc,-0.655
same,glycan array binding signal (z-score),Gal4S6S(b1-4)GlcNAc,-0.317
same,glycan array binding signal (z-score),Gal6P(b1-4)GlcNAc,-0.357
same,glycan array binding signal (z-score),Gal6S(b1-3)GlcNAc,-0.261
same,glycan array binding signal (z-score),Gal6S(b1-3)GlcNAc6S,-0.433
same,glycan array binding signal (z-score),Gal6S(b1-4)Glc,0.785
same,glycan array binding signal (z-score),Gal6S(b1-4)Glc6S,-0.104
same,glycan array binding signal (z-score),Gal6S(b1-4)GlcNAc,-0.225
same,glycan array binding signal (z-score),Gal6S(b1-4)GlcNAc6S,0.254
same,glycan array binding signal (z-score),GalNAc(a1-3)Gal,0.322
same,glycan array binding signal (z-score),GalNAc(a1-3)GalNAc,-0.054
same,glycan array binding signal (z-score),[9],-0.323
same,glycan array binding signal (z-score),[10],-0.411
same,glycan array binding signal (z-score),GalNAc(b1-3)Gal,-0.376
same,glycan array binding signal (z-score),[11],-0.095
same,glycan array binding signal (z-score),[12],-0.243
same,glycan array binding signal (z-score),[13],-0.419
same,glycan array binding signal (z-score),GalNAc(b1-3)GalNAc,-0.319
same,glycan array binding signal (z-score),GalNAc(b1-3)GlcNAc,-0.021
same,glycan array binding signal (z-score),GalNAc(b1-4)Gal(b1-4)Glc,-0.276
